The list shows a part of the results. Single values are uncertain, as repeats are few or missing.
Legend:
[1] = test system: hiPSC-derived cardiomyocytes; test: time to death of most cells in well after compound addition (days); higher = less cardiotoxic; conditions: screen: 1; 10 µM
[2] = test system: hiPSC-derived cardiomyocytes; test: time to death of most cells in well after compound addition (days); higher = less cardiotoxic; extreme values may be limits of the assay; conditions: 10 µM

Compound	time to death of most cells in well [1]	time to death of most cells in well ([2]; screen: 2)	time to death of most cells in well ([2]; screen: 3)	time to death of most cells in well ([2]; screen: 4)
Cc1c(CN2CCN(C(=O)[C@H](C)O)CC2)sc2c(N3CCOCC3)nc(-c3cnc(N)nc3)nc12 [Apitolisib (GDC-0980, RG7422)]	4	2	> 7	6
Cc1ccc(-c2nn(C(C)(C)C)c3ncnc(N)c23)cc1	> 7	> 7	> 7	> 7
CC1(COc2ccc3c(c2)ncn3-c2ccc3cccc(N4CCC(N)CC4)c3n2)COC1	> 7	6.5	2	3.5
CS(=O)(=O)N1CCN(Cc2cc3nc(-c4cccc5[nH]ncc45)nc(N4CCOCC4)c3s2)CC1 [Pictilisib (GDC-0941)]	2.5	> 7	> 7	> 7
COc1cc(Nc2ncc(F)c(Nc3ccc4c(n3)NC(=O)C(C)(C)O4)n2)cc(OC)c1OC	6	6.5	> 7	> 7
CCc1cc(Nc2nccc(-c3c(-c4ccc(OC)c(C(=O)Nc5c(F)cccc5F)c4)nc4ccccn34)n2)c(OC)cc1N1CCC(N2CCN(S(C)(=O)=O)CC2)CC1	6.5	> 7	> 7	> 7
CC(=O)c1c(C)c2cnc(Nc3ccc(N4CCNCC4)cn3)nc2n(C2CCCC2)c1=O	> 7	> 7	> 7	> 7
Cc1nc(Nc2ncc(C(=O)Nc3c(C)cccc3Cl)s2)cc(N2CCN(CCO)CC2)n1 [Dasatinib]	> 7	> 7	> 7	> 7
O=C(NCc1cccc(O)c1)Nc1nc(-c2ccncc2)cs1	2.5	2.5	6.5	> 7
CN(C)CCCn1cc(C2=C(c3c[nH]c4ccccc34)C(=O)NC2=O)c2ccccc21	> 7	> 7	> 7	> 7

— the supplement of paper PMC6828730
